# PubChem BioAssay AID504332 (National Center for Advancing Translational Sciences (NCATS), 2011)
# Screen size: about 350,000 compounds; about 31,000 (8.9%) were called active. The inconclusive results got no clear call from the source; some entries with a clear call stand among them for comparison. Calls come from the whole dose curve; as a rule, active = well fitted inhibition curve with a large enough effect; inconclusive = small, poorly fitted or top-dose-only effect; inactive = no such curve, though single readings can be large or run the other way. A potency beside an inconclusive call is a rough fit, not a confirmed value.
# Target: Histone-lysine N-methyltransferase EHMT2 (Homo sapiens) (UniProt Q96KQ7)
# Assay: qHTS Assay for Inhibitors of Histone Lysine Methyltransferase G9a; note: nearly all actives have a fitted effect of over 75% in size
# Conditions: G9a H3K9 monomethylation, AlphaScreen, 2 h; activity, negative = inhibition: at 59 µM (top of the series) unless noted
# Summary of the method: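 Quantitative HTS format: methyltransferase activity on a biotin-tagged H3K9 peptide is measured by AlphaScreen, using a rabbit anti-monomethyl-H3K9 antibody with streptavidin donor and anti-IgG acceptor beads. Final levels are 20 nM enzyme, 500 nM peptide, 20 uM SAM; 2 h RT.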
# % is set by controls: 0 for no effect and ±100 for the full control effect; potency is the fitted concentration of half-maximal effect; tags give direction and shape of the fitted curve.
# UniProt Q96KQ7, sequence (Q96KQ7 whole entry, looked up): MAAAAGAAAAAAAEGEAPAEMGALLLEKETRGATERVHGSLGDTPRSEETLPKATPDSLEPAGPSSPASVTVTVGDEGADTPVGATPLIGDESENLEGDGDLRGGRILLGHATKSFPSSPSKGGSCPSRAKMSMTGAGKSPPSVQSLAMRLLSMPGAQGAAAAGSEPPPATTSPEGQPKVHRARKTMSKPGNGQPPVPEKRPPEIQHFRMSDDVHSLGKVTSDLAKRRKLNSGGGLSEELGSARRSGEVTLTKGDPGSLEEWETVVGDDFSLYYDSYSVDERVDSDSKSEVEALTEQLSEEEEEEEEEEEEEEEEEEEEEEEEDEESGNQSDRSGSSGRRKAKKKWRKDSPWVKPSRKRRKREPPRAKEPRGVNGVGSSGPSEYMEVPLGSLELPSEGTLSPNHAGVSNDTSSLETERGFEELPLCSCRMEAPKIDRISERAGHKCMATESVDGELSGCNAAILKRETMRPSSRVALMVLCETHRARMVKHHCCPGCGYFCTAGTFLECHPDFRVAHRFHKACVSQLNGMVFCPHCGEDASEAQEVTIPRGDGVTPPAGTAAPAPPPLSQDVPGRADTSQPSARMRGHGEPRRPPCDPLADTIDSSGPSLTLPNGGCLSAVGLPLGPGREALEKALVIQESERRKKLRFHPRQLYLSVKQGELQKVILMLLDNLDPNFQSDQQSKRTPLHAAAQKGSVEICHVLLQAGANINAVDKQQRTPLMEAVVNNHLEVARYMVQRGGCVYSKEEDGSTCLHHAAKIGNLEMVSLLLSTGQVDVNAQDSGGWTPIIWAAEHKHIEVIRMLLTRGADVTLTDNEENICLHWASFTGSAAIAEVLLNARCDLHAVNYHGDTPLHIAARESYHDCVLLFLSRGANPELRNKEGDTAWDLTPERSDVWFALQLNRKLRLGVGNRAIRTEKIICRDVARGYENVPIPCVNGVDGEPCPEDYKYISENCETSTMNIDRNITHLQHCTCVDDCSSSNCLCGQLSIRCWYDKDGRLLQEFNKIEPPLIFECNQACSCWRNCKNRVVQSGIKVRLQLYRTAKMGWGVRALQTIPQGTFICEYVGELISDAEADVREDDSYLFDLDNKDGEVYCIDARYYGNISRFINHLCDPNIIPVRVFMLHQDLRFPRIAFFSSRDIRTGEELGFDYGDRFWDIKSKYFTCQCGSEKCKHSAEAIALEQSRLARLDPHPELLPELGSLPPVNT
SMILES,Potency,"activity, negative = inhibition"
CCCn1c(NCc2c[nH]c3ccccc23)nc2ccccc21,"inconclusive: 79.4 µM [inhibitor, single point]",–
Cc1ccc(C)c(S(=O)(=O)c2cn(Cc3ccccc3)c3cc(N4CCCC4)c(F)cc3c2=O)c1,inactive,–
C=CCn1c(-c2cccn(Cc3ccc(Cl)cc3)c2=O)n[nH]c1=S,active: 4.47 µM,–
O=C(c1ccncc1)N1CCC[C@@]2(CCN(C(c3ccccc3)c3ccccc3)C2)C1,–,inactive: 1.18% [at 12.7 µM]
Cc1ccc(Sc2ncccc2C(=O)N(C)Cc2cccs2)c(C)c1,inactive,–
FC(F)(F)c1ccccc1NC1=NCCC1,inactive,–
O=C(CCN1CCCCC1)Nc1ccc2c(c1)C(=O)c1ccc(NC(=O)CCN3CCCCC3)cc1C2=O,"inconclusive: 22.4 µM [inhibitor, single point]",–
CCOC(=O)c1ccc(N2C(=O)c3[nH]nc(-c4ccccc4)c3C2c2ccc(C(C)C)cc2)cc1 (configuration not stated),inactive,–
COc1ccc2c(CNCCc3ccco3)c(C(=O)O)n(Cc3ccc(F)cc3)c2c1,inactive,–
CCCC[C@H](CC)CN1CN(C[C@@H](CC)CCCC)CC(C)(N)C1,inactive,–
COc1ccc(CC(NC(C)=O)C(=O)NC2CCN(c3nnnn3-c3ccccc3)CC2)cc1 (configuration not stated),"inconclusive: 79.4 µM [inhibitor, single point]",–
O=C(NCCCn1ccnc1)C(=O)Nc1ccccc1,inactive,–
Cc1nc(NC(=S)NC(=O)c2cccs2)sc1C(=O)N(C)C,"inconclusive: 12.6 µM [inhibitor, partial curve, poor fit]",–
CCN1C(=O)C(Cc2nc3ccccc3c(=O)n2C)c2ccccc21 (configuration not stated),"inconclusive: 89.1 µM [inhibitor, single point]",–
Cn1cccc1C(=O)N/N=C/c1c(Cl)cccc1Cl,inactive,–
CC(NC(=O)C1CCN(C(=O)Nc2ccccc2)CC1)c1ccc(Cl)cc1 (configuration not stated),"inconclusive: 5.01 µM [inhibitor, single point]",–
CCc1ccccc1OCC(=O)NNCC(=O)Nc1cccc(C#N)c1,–,inactive: -43.8% [at 12.7 µM]
O=c1nc2ccccc2c(NS(=O)(=O)c2ccc(Cl)cc2)n1-c1ccccc1,–,inactive: 4.23% [at 12.7 µM]
Cc1ccccc1NC(=O)c1sc2nc3n(c(=O)c2c1C)N=C(c1ccccc1)CS3,inactive,–
Oc1c(C(c2ccccc2Cl)N2CCCC2)ccc2cccnc12 (configuration not stated),active: 11.2 µM,–
N#CC1=C(N)Oc2cc(O)c(Cl)cc2C1c1ccccc1F (configuration not stated),active: 50.1 µM,–
CN(C)c1ccc(NC(=O)CC(NCc2cccnc2)C(=O)O)cc1 (configuration not stated),"inconclusive: 12.6 µM [inhibitor, partial curve, poor fit]",–
CNC(=S)NNC(=O)c1sc2cc(C(F)(F)F)cnc2c1-c1cccnc1,"inconclusive: 70.8 µM [inhibitor, partial curve, poor fit]",–
COc1cccc(/C=C/C(=C2/C(=O)N(c3ccccc3)N=C2C)c2ccc(C)cc2)c1OC,active: 1.12 µM,–

SMILES,Potency,"activity, negative = inhibition"
COc1cc(OC)c(CN2CCCCCCC2)cc1Br,"inconclusive: 3.55 µM [inhibitor, single point]",–
COc1ccc(N2CCN(C(=O)CCNS(=O)(=O)c3cc(Br)cnc3N)CC2)cc1,"inconclusive: 44.7 µM [inhibitor, partial curve, poor fit]",–
COc1ccc(C)cc1NC1(c2ccccc2)C(=O)c2ccccc2C1=O,active: 12.6 µM,–
O=c1nc(/C=C/c2ccc(-c3ccc(F)cc3)o2)cc(C(F)(F)F)[nH]1,"inconclusive: 89.1 µM [inhibitor, single point]",–
CCOc1ccc(NC(=O)c2cnn3c2NC(C)=C(C(=O)Nc2ccc(Cl)cc2)C3c2ccc(OC)c(OC)c2)cc1 (configuration not stated),inactive,–
C=CCn1c(COc2ccccc2)nnc1SCC(=O)N/N=C/c1cc(Cl)ccc1O,inactive,–
C(=N\n1cnnc1)/c1ccc2ncccc2c1,"inconclusive: 39.8 µM [inhibitor, partial curve, poor fit]",–
O=C1CS/C(=N/N=C2C3CC4CC(C3)CC2C4)N1,inactive,–
CC1CCN(c2ccc3nnc(CCC(=O)N4CCN(c5ccc(F)cc5)CC4)n3n2)CC1,"inconclusive: 89.1 µM [inhibitor, single point]",–
COc1cccc(Cn2c(=O)cnc3cnc(Oc4ccccc4)nc32)c1,–,inactive: 11.3% [at 0.501 µM]
COc1ccc(-c2cc3nc4ccccc4n3c(N)c2C#N)cc1,inactive,–
O=C(Nc1ccccc1Br)c1cc(=O)c2ccccc2o1,"inconclusive: 39.8 µM [inhibitor, single point]",–
CCOC(=O)c1c(/N=C/C2C(=O)CCCC2=O)sc2c1CCCC2,"inconclusive: 79.4 µM [inhibitor, single point]",–
Cc1ccc(-n2c(Cc3ccccc3)n[nH]c2=S)c(C)c1,"inconclusive: 3.16 µM [inhibitor, full curve, poor fit]",–
O=C(O)c1ccc(N2C(=O)/C(=C/c3ccc(-c4ccc([N+](=O)[O-])cc4)o3)C=C2c2ccccc2)cc1,active: 5.62 µM,–
O=C(CCl)N1c2ccccc2SCC1c1ccccc1 (configuration not stated),"inconclusive: 89.1 µM [inhibitor, single point]",–
O=C(NCCc1ccccc1)C1CCN(S(=O)(=O)c2cccnc2)CC1,"inconclusive: 70.8 µM [inhibitor, single point]",–
Nn1cc(Br)c(=O)[nH]c1=O,inactive,–
Cn1cnc2c1c(=O)n(Cc1cccc(F)c1)c(=O)n2C,"inconclusive: 0.141 µM [inhibitor, partial curve, poor fit]",–
COc1ccc(CCNC(=O)CC2(CC3=NS(=O)(=O)c4ccccc4N3)CCCC2)cc1OC,inactive,–
CN1CCc2c(sc3c2C(=O)NC(/C=C\c2ccccc2)N3)C1 (configuration not stated),"inconclusive: 63.1 µM [inhibitor, partial curve, poor fit]",–
Cc1ncc([N+](=O)[O-])n1CCOC(=O)c1cc(Cl)cc(Cl)c1N,"inconclusive: 20 µM [inhibitor, single point]",–
COc1ccc(/C=C2\CCc3ccccc3C2=O)cc1CN1CCOCC1,active: 35.5 µM,–
